Structures can show the parent of a compound that is named as a salt. ± gives the standard deviation of the averaged measurements. The list shows a part of the results.
How the values were obtained:
Conditions in all cases: priming compound concentration 100 µM
hAMSC donor 1 [1] = experiment: Hoechst total cell count ratio vs vehicle control; higher = more cells (less toxicity)
hAMSC donor 2 [2] = experiment: as above
hAMSC donor 1 [3] = experiment: transgenic luciferase activity (RLU/mg protein) fold change vs vehicle control (ratio); higher = more transgene expression
hAMSC donor 2 [4] = experiment: as above
hAMSC donor 1 [5] = experiment: transfection efficiency (EGFP+ cells / Hoechst count) fold change vs vehicle control (ratio); hAMSC are human adipose-derived mesenchymal stem cells given an EGFP-luciferase plasmid by lipofection; higher = enhanced transfection
hAMSC donor 2 [6] = experiment: as above
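Throughout, for Hoechst total cell count ratio vs vehicle control: compound added 30 min before Lipofectamine 3000 lipoplex delivery, triplicate-well means expressed against DMSO vehicle control wells of the same 96-well plate.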
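Throughout, for transfection efficiency (EGFP+ cells / Hoechst count) fold change vs vehicle control: compounds added 30 min before Lipofectamine 3000 lipoplex transfection, triplicate means relative to DMSO vehicle wells on the same plate, luciferase RLU normalized to BCA total protein.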
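Throughout, for transgenic luciferase activity (RLU/mg protein) fold change vs vehicle control: compounds in DMSO added 30 min before Lipofectamine 3000 transfection of pEGFP-Luc in 96-well plates, values are means of triplicate wells over DMSO vehicle wells on the same plate.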

Compound | Hoechst total cell count ratio (hAMSC donor 1 [1]) | Hoechst total cell count ratio (hAMSC donor 2 [2]) | transgenic luciferase activity (hAMSC donor 1 [3]) | transgenic luciferase activity (hAMSC donor 2 [4]) | transfection efficiency (hAMSC donor 1 [5]) | transfection efficiency (hAMSC donor 2 [6])
CC(=O)[C@H]1CC[C@H]2[C@@H]3C[C@H](C)C4=CC(=O)CC[C@]4(C)[C@H]3[C@@H](O)C[C@]12C [Medrysone] | 1.07 ± 0.1 | 1.81 ± 0.27 | 4.6 ± 0.77 | 1.84 ± 0.25 | 1.22 ± 0.27 | 1.36 ± 0.13
O=C(c1ccc(OCCN2CCCCC2)cc1)c1c(-c2ccc(O)cc2)sc2cc(O)ccc12 [Raloxifene hydrochloride] | 0.407 ± 0.059 | 0.598 ± 0.029 | 2.32 ± 0.64 | 0.192 ± 0.061 | 2.4 ± 0.69 | 0.539 ± 0.095
CC(=O)OCC(=O)NCCCOc1cccc(CN2CCCCC2)c1 [Roxatidine acetate hydrochloride] | 1.87 ± 0.34 | 1.05 ± 0.06 | 1.49 ± 0.97 | 1.26 ± 0.19 | 0.585 ± 0.056 | 0.962 ± 0.11
CN(C)CCCN1c2ccccc2Sc2ccc(Cl)cc21 [Chlorpromazine hydrochloride] | 0.105 ± 0.053 | 0.0663 ± 0.014 | 0.00788 ± 0.0036 | 0.000215 ± 4.2e-05 | 1.65 ± 1.3 | 0.28 ± 0.069
CCOC(=O)[C@H](CCc1ccccc1)N[C@@H](C)C(=O)N1[C@H](C(=O)O)C[C@@H]2CCC[C@@H]21 [Ramipril] | 1.55 ± 0.14 | 1.56 ± 0.26 | 0.534 ± 0.22 | 0.635 ± 0.13 | 0.709 ± 0.28 | 0.747 ± 0.23
CC1=Nc2ccc(Cl)cc2S(=O)(=O)N1 [Diazoxide] | 1.24 ± 0.15 | 1.16 ± 0.044 | 0.987 ± 0.23 | 0.819 ± 0.15 | 1 ± 0.28 | 0.743 ± 0.073
CC(C)NCC(O)c1cc(O)cc(O)c1 (stereo not drawn) [Metaproterenol] | 1.56 ± 0.057 | 1.18 ± 0.2 | 0.318 ± 0.1 | 0.134 ± 0.0062 | 1.07 ± 0.14 | 1.12 ± 0.18
NS(=O)(=O)c1cc2c(cc1C(F)(F)F)NCNS2(=O)=O [Hydroflumethiazide] | 1.83 ± 0.14 | 1.61 ± 0.4 | 6.14 ± 3 | 2.62 ± 0.36 | 1.4 ± 0.3 | 1.9 ± 0.39
CN(CCOc1ccc(NS(C)(=O)=O)cc1)CCc1ccc(NS(C)(=O)=O)cc1 [Dofetilide] | 1.33 ± 0.062 | 1.36 ± 0.55 | 0.957 ± 0.22 | 0.69 ± 0.17 | 0.701 ± 0.084 | 0.934 ± 0.27
COc1cc2nc(N3CCN(C(=O)C4COc5ccccc5O4)CC3)nc(N)c2cc1OC (stereo not drawn) [Doxazosin] | 0.894 ± 0.062 | 0.78 ± 0.15 | 0.449 ± 0.44 | 0.353 ± 0.18 | 0.957 ± 0.42 | 0.431 ± 0.17
CC[C@]1(O)C[C@H]2CN(CCc3c([nH]c4ccccc34)[C@@](C(=O)OC)(c3cc4c(cc3OC)N(C=O)[C@H]3[C@@](O)(C(=O)OC)[C@H](OC(C)=O)[C@]5(CC)C=CCN6CC[C@]43[C@@H]65)C2)C1 [Vincristine sulfate] | 0.621 ± 0.094 | 1.47 ± 0.075 | 4.21 ± 1.1 | 1.1 ± 0.5 | 1.26 ± 0.52 | 0.966 ± 0.26
Fc1ccc([C@@H]2CCNC[C@H]2COc2ccc3c(c2)OCO3)cc1 [Paroxetine maleate] | 0.23 ± 0.081 | 0.053 ± 0.032 | 0.00542 ± 0.0058 | 0.00033 ± 4.1e-05 | 0.516 ± 0.042 | 0.698 ± 0.78
CO[C@H]1/C=C/O[C@@]2(C)Oc3c(C)c(O)c4c(O)c(c(/C=N/N5CCN(C6CCCC6)CC5)c(O)c4c3C2=O)NC(=O)/C(C)=C\C=C\[C@H](C)[C@H](O)[C@@H](C)[C@@H](O)[C@@H](C)[C@H](OC(C)=O)[C@@H]1C [Rifapentine] | 1.69 ± 0.57 | 1.72 ± 0.16 | 0.0648 ± 0.048 | 0.285 ± 0.079 | 0.114 ± 0.055 | 0.174 ± 0.029
CN(C)CCCC1(c2ccc(F)cc2)OCc2cc(C#N)ccc21 (stereo not drawn) [Citalopram hydrobromide] | 1.02 ± 0.27 | 1.05 ± 0.051 | 0.442 ± 0.092 | 0.477 ± 0.07 | 1.2 ± 0.44 | 0.921 ± 0.15
CN1CCCC(n2nc(Cc3ccc(Cl)cc3)c3ccccc3c2=O)CC1 (stereo not drawn) [Azelastine hydrochloride] | 0.671 ± 0.052 | 0.287 ± 0.096 | 2.36 ± 1.3 | 0.434 ± 0.071 | 0.631 ± 0.21 | 0.602 ± 0.12
Cc1c(O)cccc1C(=O)N[C@@H](CSc1ccccc1)[C@H](O)CN1C[C@H]2CCCC[C@H]2C[C@H]1C(=O)NC(C)(C)C [Nelfinavir mesylate] | 0.516 ± 0.071 | 0.252 ± 0.024 | 0.409 ± 0.11 | 2.02 ± 0.84 | 0.57 ± 0.073 | 1.19 ± 0.26
CCOC(=O)CCC(=O)O[C@H]1[C@H](O[C@@H]2[C@@H](C)[C@H](O[C@H]3C[C@@](C)(OC)[C@@H](O)[C@H](C)O3)[C@@H](C)C(=O)O[C@H](CC)[C@@](C)(O)[C@H](O)[C@@H](C)C(=O)[C@H](C)C[C@@]2(C)O)O[C@H](C)C[C@@H]1N(C)C [Eryped] | 1.61 ± 0.25 | 1.42 ± 0.3 | 1.37 ± 0.22 | 0.747 ± 0.055 | 0.831 ± 0.15 | 0.954 ± 0.12
CNCCCCOc1ccccc1Cc1ccccc1 [Bifemelane hydrochloride] | 0.111 ± 0.025 | 0.101 ± 0.025 | 0.0245 ± 0.017 | 0.0527 ± 0.027 | 0.655 ± 0.57 | 0.476 ± 0.23
N[C@@H](Cc1cc(I)c(Oc2cc(I)c(O)c(I)c2)c(I)c1)C(=O)O [L-Thyroxine] | 1.01 ± 0.13 | 0.46 ± 0.026 | 0.957 ± 0.64 | 0.352 ± 0.041 | 1.66 ± 0.62 | 1.21 ± 0.1
CN1C2CCCC1CC(NC(=O)c1nn(C)c3ccccc13)C2 (stereo not drawn) [Granisetron hydrochloride] | 1.88 ± 0.33 | 1.16 ± 0.093 | 1.04 ± 0.26 | 0.756 ± 0.093 | 0.8 ± 0.21 | 0.828 ± 0.068
COc1ccc2cc(CCC(C)=O)ccc2c1 [Nabumetone] | 1.22 ± 0.093 | 1.51 ± 0.24 | 2.45 ± 0.4 | 3.23 ± 0.63 | 1.28 ± 0.34 | 1.72 ± 0.28
CCCN1CCCC[C@H]1C(=O)Nc1c(C)cccc1C [Ropivacaine hydrochloride] | 1.19 ± 0.082 | 1.27 ± 0.27 | 1.87 ± 1.5 | 0.69 ± 0.18 | 0.865 ± 0.23 | 1 ± 0.26
Cc1onc(-c2c(Cl)cccc2Cl)c1C(=O)N[C@@H]1C(=O)N2[C@@H]1SC(C)(C)[C@@H]2C(=O)O [Dicloxacillin sodium] | 1.47 ± 0.27 | 1.56 ± 0.48 | 0.959 ± 0.44 | 0.913 ± 0.32 | 0.512 ± 0.069 | 0.894 ± 0.15

From the supplement of paper PMC7238544
